± gives the standard deviation of the averaged measurements. Some of the results follow.

The experiment concerns PfAP2-LT AP2 domain (GST-tagged). Kind of experiment: gcPBM binding intensity (ln(normalized median fluorescence intensity)); higher = stronger DNA binding. Put shortly: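 DNA-binding domains from P. falciparum, fused to GST and produced in E. coli, were put on an Agilent 4 × 180k double-stranded probe array for 1 h in 1× PBS holding 1% milk, 0.2 mg/ml BSA, 0.5% salmon testes DNA and 0.03% Triton X-100. Probes were primer-extended, 36 bp long and drawn from intergenic genomic regions, with negative controls included. After Alexa488 anti-GST antibody detection and a 488 nm scan, binding intensity was set as the highest Masliner-normalised natural-log median intensity across replicate spots of either probe orientation.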
On to “AATGTAACAACTTTTTGTACTTAAGAAATAATAAAT [XGTACX_site3310]”, for which the “gcPBM binding intensity (ln)” value turned out to be 8.58 ± 0.42.

Regarding “TAAAAAATTATATTCACACACATACCCATATATATA [CACACA_site4458]”, the “gcPBM binding intensity (ln)” value worked out at 9.22 ± 0.21.

Consider “TAAAATTTATAAACTACACACATATATATAGTAATA [CACACA_site3728]”, for which the “gcPBM binding intensity (ln)” value amounted to 8.8 ± 0.42.

Take “TGAGCTTCAACAATATGTACATAAAATATATTACAT [XGTACX_site4763]”: the “gcPBM binding intensity (ln)” value was determined as 8.79 ± 0.4.

For “TTAATAAAAGCCCATGCACACCTTAGAAAGTTTTAT [CACACA_site8003]”, the “gcPBM binding intensity (ln)” value came to 8.7 ± 0.39.

With “GTATTATAGTATAATACACACCCAAATATTAAAAAG [CACACA_site7404]”, the “gcPBM binding intensity (ln)” value was found to be 9.02 ± 0.41.

As for “TTTCTTAAAATGTTATGTACATATTTCGTTTCAAAG [XGTACX_site6102]”, the “gcPBM binding intensity (ln)” value stood at 8.54 ± 0.41.

ATATATTTCAAAGGGGTGCAGGCATATTTAAGCAAA: the “gcPBM binding intensity (ln)” value turned out to be 8.69 ± 0.49.

As to “TCTTTTTAATTTATATGTACTTATATTAATTATAAG [XGTACX_site7524]”, the “gcPBM binding intensity (ln)” value is 8.45 ± 0.45.

For the sequence “TTTTTCTTTTGATGTTGTACATATATATCATATAAT [XGTACX_site1189]”, the “gcPBM binding intensity (ln)” value amounted to 8.74 ± 0.37.

In the case of “GTGCATATACAAATATGTACTTAAACGTTTTTTTTT [XGTACX_site7362]”, the “gcPBM binding intensity (ln)” value amounted to 8.81 ± 0.45.

“AAGACTTCTCCATATACACACACCAACAAATATAAA [CACACA_site2779]”: the “gcPBM binding intensity (ln)” value is 9.35 ± 0.33.

On to “GTTTATTCATCATACGGTACACATAAATAATATATA [XGTACX_site6931]”, for which the “gcPBM binding intensity (ln)” value is 8.71 ± 0.43.

For “GATGAATAAATCAAAGCACACATACACCCACATATA [CACACA_site7986]”, the “gcPBM binding intensity (ln)” value was 9.67 ± 0.13.

For “ATTTTTTTTTTTTTTTTTTGGTTTTCTTTAGGAGTT [CACACA_negctrl_site1258]”, the “gcPBM binding intensity (ln)” value was 8.57 ± 0.54.

For the sequence “TTCGTTTAAATCAAGTGTACATATTATATATAATAT [XGTACX_site7599]”, the “gcPBM binding intensity (ln)” value amounted to 8.79 ± 0.4.

Take “TAAATAATATCCCTTTGTACGTATTTTTTTTTATTA [XGTACX_site7303]”: the “gcPBM binding intensity (ln)” value was 8.78 ± 0.5.

As to “CGTTATATATGTATTACATGCAATATATGTACGTAA [TGCATGCA_site274]”, the “gcPBM binding intensity (ln)” value turned out to be 8.8 ± 0.3.

With “GAAATAAGTTAAAATAGTACGTAGTGTTCCTTAAGT [XGTACX_site6557]”, the “gcPBM binding intensity (ln)” value was determined as 8.87 ± 0.52.

With “TTAGGAAAACAAAAATGTACGCATATATATTATTGA [XGTACX_site8288]”, the “gcPBM binding intensity (ln)” value was found to be 8.65 ± 0.59.

For “TTAAAAATAATATATTGTACACATACTTATTTTAAT [XGTACX_site1348]”, the “gcPBM binding intensity (ln)” value was 8.6 ± 0.39.

In the case of “TATATTTGTACATGATATTTTTTTTTTCTTTTAAAA [CACACA_negctrl_site754]”, the “gcPBM binding intensity (ln)” value worked out at 8.44 ± 0.54.

“TGTATTTAGAAACATACACACATATTAAGTTTACAT [CACACA_site5689]”: the “gcPBM binding intensity (ln)” value was determined as 8.98 ± 0.45.

In the case of “ATATATCTGTATGGCACACACGGATAAATATATATA [CACACA_site4668]”, the “gcPBM binding intensity (ln)” value stood at 9.21 ± 0.4.

As for “GGAAAATTATCAATAGCATGCAAAATGTGAATATTA [TGCATGCA_site901]”, the “gcPBM binding intensity (ln)” value came to 9.04 ± 0.42.

Take “TTTCCTCATTTTATCATACACACTTATTTATATGTG [CACACA_site900]”: the “gcPBM binding intensity (ln)” value came out at 9.04 ± 0.49.

Consider “AGAATAATACAAAAATGTACATTAATAAAAAGATAG [XGTACX_site780]”, for which the “gcPBM binding intensity (ln)” value was 9.15 ± 0.68.

For “GCCAAAATATAATTTACACACTTATTAAATAATTAT [CACACA_site236]”, the “gcPBM binding intensity (ln)” value worked out at 8.69 ± 0.42.

As for “TTATTATTTCTTAGTAGTACTATATAATTTTTTTTT [XGTACX_site1847]”, the “gcPBM binding intensity (ln)” value amounted to 8.62 ± 0.45.

Turning to “ATAGTATCTGGTAGCTGTACGAGTCGTAGAGAGTAG [XGTACX_site2546]”, the “gcPBM binding intensity (ln)” value was determined as 9.01 ± 0.43.

As to “TCGTGTTAAACTTTTACACACAAACTTGCAATAATT [CACACA_site7745]”, the “gcPBM binding intensity (ln)” value is 9.09 ± 0.42.

Consider “TAATAACTACAAAAAAAAAAGAAAAATAGAAAAAGG [CACACA_negctrl_site1102]”, for which the “gcPBM binding intensity (ln)” value amounted to 8.62 ± 0.64.

On to “TTTGTTTAAATTAAATGTACATAAAGAATAATATAT [XGTACX_site5093]”, for which the “gcPBM binding intensity (ln)” value was 8.49 ± 0.3.

Consider “TGCTTTATTATTTATTGTACATGTAAAATGAGAGAG [XGTACX_site2288]”, for which the “gcPBM binding intensity (ln)” value came to 8.52 ± 0.38.

As to “AGAAGGTAAATAATTTACCCATATATATAAATATAT [GTGCAC_negctrl_site631]”, the “gcPBM binding intensity (ln)” value was determined as 8.62 ± 0.49.

As to “AATTATATGAAATAAACACACATATGTAATATTACA [CACACA_site1928]”, the “gcPBM binding intensity (ln)” value was 8.9 ± 0.41.

Consider ATTGAATATGGATATGTGCACATATGTATATAAGTA, for which the “gcPBM binding intensity (ln)” value was determined as 9.21 ± 0.47.

Consider “ATATATATACTGTGTACACACATATGTATTTATATA [CACACA_site4600]”, for which the “gcPBM binding intensity (ln)” value amounted to 9.23 ± 0.38.

Consider “AAAACATTGTTGAACTGTTTTATTTATAAATATAAG [XGTACX_negctrl_site393]”, for which the “gcPBM binding intensity (ln)” value came out at 8.43 ± 0.45.

On to “ATTTCTACTAAAAATACACACGATGATACAACGAAG [CACACA_site1755]”, for which the “gcPBM binding intensity (ln)” value stood at 8.87 ± 0.39.

Turning to “TATATATATATATAATGTACATATATATAATATACA [XGTACX_site1552]”, the “gcPBM binding intensity (ln)” value is 8.76 ± 0.22.

Turning to “GTCTTAAAAATTAAAACACACGTTCACTTTCATATT [CACACA_site5803]”, the “gcPBM binding intensity (ln)” value came to 8.96 ± 0.55.

On to “ATAATGTAAAAGTAAACACACACATATATATATACA [CACACA_site8793]”, for which the “gcPBM binding intensity (ln)” value was 9.58 ± 0.4.

Turning to “AATTAATAACAAAATAAACACACATATATAAATACA [CACACA_site8456]”, the “gcPBM binding intensity (ln)” value is 9.03 ± 0.38.

(Values after the supplement of paper PMC11417369.)
